# In article PMC4336329 (PLoS ONE, 2015):
# Hit rate of the full screen: of about 310,000 compounds, about 14,000 (4.5%) showed an effect of 50% or more. Effects have a minus sign here. The list shows a part of the results.
# Biological target: human ether-à-go-go-related gene (hERG) potassium channel (human, UniProt Q12809)
# Assay: primary screen, population patch clamp on CHO cells stably expressing hERG
# 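Also: peak tail current of the secondary pulse compared with the same well before compound.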
# Sequence of human ether-à-go-go-related gene (hERG) potassium channel (Q12809 whole entry, looked up): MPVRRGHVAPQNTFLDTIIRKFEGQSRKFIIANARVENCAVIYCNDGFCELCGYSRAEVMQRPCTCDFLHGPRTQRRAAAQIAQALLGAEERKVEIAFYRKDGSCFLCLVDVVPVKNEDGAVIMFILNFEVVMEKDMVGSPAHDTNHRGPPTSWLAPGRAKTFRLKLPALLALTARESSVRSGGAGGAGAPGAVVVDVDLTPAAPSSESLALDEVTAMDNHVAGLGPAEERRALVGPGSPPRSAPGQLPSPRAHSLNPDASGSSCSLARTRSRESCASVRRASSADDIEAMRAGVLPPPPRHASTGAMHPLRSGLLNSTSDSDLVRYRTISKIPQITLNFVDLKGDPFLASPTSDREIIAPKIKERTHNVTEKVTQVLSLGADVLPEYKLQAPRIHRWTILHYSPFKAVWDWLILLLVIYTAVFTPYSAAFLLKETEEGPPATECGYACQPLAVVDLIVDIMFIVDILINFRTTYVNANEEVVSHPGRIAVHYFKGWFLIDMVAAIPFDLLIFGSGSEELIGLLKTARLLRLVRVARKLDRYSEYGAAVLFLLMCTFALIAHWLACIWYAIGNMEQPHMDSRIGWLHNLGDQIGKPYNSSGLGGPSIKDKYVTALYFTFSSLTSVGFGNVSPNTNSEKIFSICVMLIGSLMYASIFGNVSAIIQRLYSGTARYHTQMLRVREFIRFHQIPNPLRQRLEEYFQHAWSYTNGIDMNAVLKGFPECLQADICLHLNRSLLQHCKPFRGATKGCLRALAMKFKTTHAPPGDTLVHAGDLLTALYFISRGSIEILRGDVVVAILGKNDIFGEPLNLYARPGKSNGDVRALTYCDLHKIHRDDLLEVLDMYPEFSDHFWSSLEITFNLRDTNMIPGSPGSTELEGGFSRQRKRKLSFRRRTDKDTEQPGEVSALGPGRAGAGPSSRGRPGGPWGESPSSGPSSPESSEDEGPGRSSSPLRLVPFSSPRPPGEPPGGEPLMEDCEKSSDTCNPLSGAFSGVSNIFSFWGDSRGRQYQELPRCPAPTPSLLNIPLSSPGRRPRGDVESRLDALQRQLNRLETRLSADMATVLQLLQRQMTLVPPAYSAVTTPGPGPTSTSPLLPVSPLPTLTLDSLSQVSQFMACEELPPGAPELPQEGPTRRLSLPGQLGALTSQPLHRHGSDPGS
row,SMILES,"hERG current change (%, negative = inhibition) at 10uM [%]"
1,CCCC(O)(CCC)C(=O)NNc1ccc(C)cc1,5.21
2,CCOc1ccc(NC(=O)Nc2cc(OCC(F)(F)F)cc(OCC(F)(F)F)c2)cc1,16.5
3,COc1ccccc1/C=C1\SC(=S)N(CCC(=O)NCCCN2CCOCC2)C1=O,-16.2
4,O=C1CSC(c2ccccn2)N1c1ccc(C(F)(F)F)cc1 (stereo not shown),-45.1
5,Cc1cccc(NC(=O)COC(=O)CCc2c[nH]c3ccccc23)c1,4.11
6,CCN(C(=N)N=C(N)N)c1ccccc1,9.81
7,CC(C(N)=O)N1CC(c2ccccc2)CC1=O (stereo not shown),-4.86
8,CCN(CC(=O)Nc1ccc(NC(C)=O)cc1)C(=O)C1CC(=O)N(Cc2ccc(C)cc2)C1 (stereo not shown),0.107
9,CCC(C)n1c(SCC(=O)/C(C#N)=C(\C)N)nc2ccccc2c1=O (stereo not shown),-15.3
10,O=C(N/N=C/c1ccco1)c1cc(C2CC2)nc2ccccc12,4.56
11,COc1cc(/C=C2/C(=O)ON=C2C)ccc1OCc1cccc(F)c1,28.5
12,Cl.c1csc(CNCCN2CCOCC2)c1,13.1
13,Cc1ccc(C)n1-n1c(C)nc2scc(-c3ccccc3)c2c1=O,-14
14,Cc1ccc(NC(=O)C2C3C=CC(O3)C2C(=O)O)cc1C (stereo not shown),20.4
15,O=C1CN(c2ccc(Br)cc2)C(=O)N1CC(=O)N1CCCc2ccccc21,-7.58
16,COc1ccccc1-n1cc(-c2ccc(Br)cc2)[nH]c1=S,15.6
17,C/C(CC(=O)Nc1ccc(C)c(Cl)c1)=N\NC(=O)Cc1cccs1,-4.58
18,COc1cc(OC)cc(C(=O)Nc2cccc3c2CCCC3)c1,19.3
19,Cc1nc(C)c(NC(=O)N2CCc3ccccc32)cc1NC(=O)N1CCc2ccccc21,7.5
20,COCC(C)n1c(C)cc(C(=O)CSc2nnc(N)s2)c1C (stereo not shown),-6.96
21,Cc1cccc(NC(=O)CSCC(=O)Nc2cc(S(=O)(=O)N3CCOCC3)ccc2OC(C)C)c1,-87.2
22,Cc1cc(N(C)C)ccc1[N+](=O)[O-],-9.31
23,CCOC(=O)c1ccc(NC(=O)CSc2nc(NC(=O)c3ccccc3)c3c(C)c(C)oc3n2)cc1,10.8
24,CS(=O)(=O)Nc1ccccc1C(=O)NCc1ccco1,-2.03
25,COc1ccccc1S(=O)(=O)Cc1ccc(C(=O)N2CCOCC2)o1,0.199
